The whole screen tested about 310,000 compounds, of which about 2,200 (0.71%) showed an effect of 50% or more. The effect is printed as a negative number. The list shows a part of the results.
Biological target: human ether-à-go-go-related gene (hERG) potassium channel (human, UniProt Q12809)
Experiment: primary screen, population patch clamp on CHO cells stably expressing hERG

Sequence of human ether-à-go-go-related gene (hERG) potassium channel (Q12809 whole entry, looked up): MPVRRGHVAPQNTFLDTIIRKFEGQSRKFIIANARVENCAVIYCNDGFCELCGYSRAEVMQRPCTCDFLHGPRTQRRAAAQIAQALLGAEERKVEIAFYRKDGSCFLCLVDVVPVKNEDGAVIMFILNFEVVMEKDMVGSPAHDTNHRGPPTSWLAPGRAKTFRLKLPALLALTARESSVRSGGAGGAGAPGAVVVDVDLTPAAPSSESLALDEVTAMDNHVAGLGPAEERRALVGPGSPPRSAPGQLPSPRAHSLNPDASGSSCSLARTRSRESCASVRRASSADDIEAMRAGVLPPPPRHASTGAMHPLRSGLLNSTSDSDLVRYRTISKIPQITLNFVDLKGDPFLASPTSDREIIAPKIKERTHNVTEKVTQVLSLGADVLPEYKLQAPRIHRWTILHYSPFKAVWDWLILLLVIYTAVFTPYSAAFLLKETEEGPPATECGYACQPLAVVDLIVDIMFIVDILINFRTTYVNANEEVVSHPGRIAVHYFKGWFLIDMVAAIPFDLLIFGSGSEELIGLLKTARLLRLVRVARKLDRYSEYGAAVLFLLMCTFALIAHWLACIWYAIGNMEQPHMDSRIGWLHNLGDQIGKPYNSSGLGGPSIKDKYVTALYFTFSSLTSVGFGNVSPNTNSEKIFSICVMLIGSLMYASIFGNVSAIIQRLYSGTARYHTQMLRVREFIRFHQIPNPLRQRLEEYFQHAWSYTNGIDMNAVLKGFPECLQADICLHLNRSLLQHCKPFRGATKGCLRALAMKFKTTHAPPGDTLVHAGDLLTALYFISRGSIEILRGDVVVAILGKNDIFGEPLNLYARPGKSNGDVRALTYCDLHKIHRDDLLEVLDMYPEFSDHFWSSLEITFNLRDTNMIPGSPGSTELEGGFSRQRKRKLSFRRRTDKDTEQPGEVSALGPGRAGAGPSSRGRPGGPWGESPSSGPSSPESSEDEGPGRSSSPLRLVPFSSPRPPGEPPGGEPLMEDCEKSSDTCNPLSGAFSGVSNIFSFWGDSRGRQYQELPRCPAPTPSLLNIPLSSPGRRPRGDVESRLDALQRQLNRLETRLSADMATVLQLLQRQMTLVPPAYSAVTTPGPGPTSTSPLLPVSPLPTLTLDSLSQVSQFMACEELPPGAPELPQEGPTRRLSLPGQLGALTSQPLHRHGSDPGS

Point of comparison: `Cc1ccc2c(c1Br)/C(=N/N1C(=O)c3ccccc3C1=O)C(=O)N2`, “hERG current change (%, negative = inhibition) at 1uM” value 17%. Against it:
- Cn1c(Cc2c[nH]c3ccccc23)n[nH]c1=S — lower, 8.98%
- CCOc1ccc(Cl)cc1S(=O)(=O)N1CCC(C(=O)N2CCCC2)CC1 — lower, 12.7%
- CNC(=O)c1ccsc1NC(=O)CCS(=O)(=O)c1ccc(Cl)cc1 — lower, 10.2%
- Cc1ccc(C2Nc3ccc4ccccc4c3C3=C2C(=O)CC(C)(C)C3)o1 (stereo not drawn) — lower, 7.69%
- Cc1cc2cc(CN(Cc3ccco3)C(=O)C3CCCCC3)c(=O)[nH]c2cc1C — lower, -5.65%
- O=C(Cc1ccsc1)NCC(=O)Nc1ccc(F)c(F)c1 — lower, 7.22%
- CN(C)c1nc(N)nc(N(c2ccccc2)c2ccccc2)n1 — lower, 6.27%
- Cc1ccc2sc(N(CCCN(C)C)C(=O)CCS(=O)(=O)c3ccccc3)nc2c1C — lower, 3.82%
- CCc1ccc(NC(=O)C(=O)NCCOc2ccccc2Cl)cc1 — lower, 10.7%
- CC(=O)c1ccc(N2CCN(C(=O)c3cccs3)CC2)c(F)c1 — lower, 4.76%
- CN(C)/C=C1/Sc2ccccc2C1=O — lower, 13.5%
- Cc1ccc(-n2c(SCC(=O)N/N=C/C=C/c3ccccc3[N+](=O)[O-])nc3ccccc3c2=O)cc1 — lower, 5.85%
- Cc1ccc(C(=O)C(C)OC(=O)c2nc(Cl)ccc2Cl)cc1 (stereo not drawn) — lower, 13.2%
- N/C(=N\NC(=O)Nc1ccccc1)c1ccccn1 — lower, 4.06%
- O=C(Nc1ccc(Cl)c(C(F)(F)F)c1)[C@@H]1CC=C[C@@H]2CCN(Cc3ccc(Cl)c(Cl)c3)C(=O)[C@@H]21 — higher, 23.5%
- O=C(CCn1c(=O)c2sccc2n(CC(=O)NCc2ccco2)c1=O)NCc1ccccc1 — lower, 11.2%
- COC(=O)C1=C(N)OC2=C(C(=O)CC(C)(C)C2)C1c1cccnc1 (stereo not drawn) — higher, 17.9%
- Cc1ccc(N(C)C(=O)c2ccc3c(Cl)c4c(nc3c2)CCC4)cc1C — lower, 12.6%
- COC(=O)CN1C(=O)C(O)(CC(=O)c2ccc(Br)cc2)c2ccccc21 (stereo not drawn) — lower, 9.18%
- COc1ccccc1N=Nc1c(C)n[nH]c1C — lower, 12.6%
- O=C(O)c1cccc(NC(=O)c2cc(-c3cccc(Cl)c3)nc3ccccc23)c1 — higher, 23%
- CCOc1ccc(CC(=O)NNC(=S)Nc2ccccc2)cc1Br — lower, 7.8%
- O=C(NCC(c1ccco1)N1CCN(c2ccc(F)cc2)CC1)c1ccc2c(c1)OCO2 (stereo not drawn) — lower, 4.31%
- COC(=O)c1ccc(NC(=O)c2cnc3scc(C)n3c2=O)cc1 — lower, 4.57%
- COCCn1c(SCc2ccc(F)cc2)nc2c1c(=O)[nH]c(=O)n2C — lower, -4.05%
- Cc1cc(C)n2c(nc3ccccc32)c1C(=O)NCc1ccccc1 — lower, 14.2%
- CCCS(=O)(=O)N1CCCC(C(=O)NCCCN(C)Cc2ccccc2)C1 (stereo not drawn) — lower, 6.15%
- CC1=C(C(=O)OC2CCCCC2)C(c2ccc(F)cc2)NC(=O)N1 (stereo not drawn) — lower, 8.19%
- CCS(=O)(=O)Nc1cccc(C2=NN(S(=O)(=O)c3ccc(C)cc3)C(c3ccco3)C2)c1 (stereo not drawn) — lower, 15.8%
- O=c1[nH]c2ccccc2n1CCCOc1ccccc1 — lower, 11.2%
- COc1ccc(-c2nnc(SC(C)C(=O)Nc3c(C)n(C)n(-c4ccccc4)c3=O)o2)cc1 (stereo not drawn) — lower, 4.81%
- CCOc1ccc(NC(=O)CN(C)C(=O)CCNC(=O)c2ccccc2Cl)cc1OCC — lower, 7.89%
- Cc1cc(N2CCOCC2)nc2ccc(NC(=S)NCCN(C)C)cc12 — lower, 14.3%
- C=CCN(C(=O)CCC(=O)Nc1cc(C)on1)C(C(=O)NC1CCCC1)c1ccc(OC)c(OC)c1 (stereo not drawn) — lower, 8.63%
- O=C(CN1CCN(c2ccccc2F)CC1)N1CCc2ccccc21 — lower, 14.5%
- COc1ccc(-c2c(C#N)sc(C(N)=O)c2-c2ccc(OC)cc2)cc1 — lower, 13.4%
- Cl.O=[N+]([O-])c1cccnc1N1CCN(Cc2ccc3c(c2)OCO3)CC1 — lower, -0.256%
- CCOC(=O)N1CCC(Nc2cc(C)nc3c(-c4ccccc4OC)c(C)nn23)CC1 — lower, -2.79%
- COCCNC(=S)N(CCCN(C)C)Cc1cc2cc3c(cc2[nH]c1=O)OCCO3 — higher, 21.8%
- COc1ccc(OC)c(NC(=O)c2ccc(NC3=NC4CS(=O)(=O)CC4S3)cc2)c1 (stereo not drawn) — lower, 7.25%
- CC[N+](CC)(CC)CCCCOc1ccc2c(c1)C(=O)c1cc(OCCCC[N+](CC)(CC)CC)ccc1-2.[I-] — lower, 15%
- CCCc1[nH]nc2c1C(C1CCCCC1)C(C#N)=C(N)O2 (stereo not drawn) — lower, 9.47%
- COc1ccc(CNC(=O)C(=O)NCc2ccncc2)cc1 — higher, 18.2%
- CC(=O)NCCOC(=O)Nc1sc(=S)n(C)c1C — lower, 2.84%
- Cc1ccc(NC(=O)c2cc(NC(=O)c3ccco3)ccc2N2CCOCC2)cc1 — lower, 13.7%
- OCC[C@H]1C[C@H](O)[C@@H](O)[C@]2(OCCc3ccccc32)O1 — lower, 9.61%
- O=c1c(Cc2ccc(Cl)cc2)c(O)ccn1Cc1ccccc1 — lower, 5.62%
- CCC(O)C1CCN(Cc2cn(Cc3ccccc3)nc2-c2cc3ccccc3o2)CC1 (stereo not drawn) — lower, -14.3%
- O=c1c2ccccc2nc(SCc2cccc(F)c2)n1Cc1ccco1 — lower, 1.81%
- O=C(CN1C(=O)NC2(CCCCCC2)C1=O)Nc1ccc(Br)cc1Br — lower, -3.07%
- O=C(NC(CC(=O)N1CCN(c2ccc([N+](=O)[O-])cc2)CC1)c1ccccc1)c1ccccc1Cl (stereo not drawn) — lower, -69%
- CC(C)Cc1ccc(CN2CCCC(NC(=O)c3cnc4ccccn4c3=O)C2)cc1 (stereo not drawn) — lower, -28%
- O=C(O)c1ccc(S(=O)(=O)NCc2cccnc2)cc1 — lower, 15.1%
